# The supplement of paper PMC3334620
# The full ranking holds about 33,000 sequences; the median of “E-score (-0.5 to 0.5)” is about -0.017, and the highest 2% start at about 0.3. The list shows a part of the results.
# Target: T1, Sut1 (UniProt P53032)
# T1 sequence: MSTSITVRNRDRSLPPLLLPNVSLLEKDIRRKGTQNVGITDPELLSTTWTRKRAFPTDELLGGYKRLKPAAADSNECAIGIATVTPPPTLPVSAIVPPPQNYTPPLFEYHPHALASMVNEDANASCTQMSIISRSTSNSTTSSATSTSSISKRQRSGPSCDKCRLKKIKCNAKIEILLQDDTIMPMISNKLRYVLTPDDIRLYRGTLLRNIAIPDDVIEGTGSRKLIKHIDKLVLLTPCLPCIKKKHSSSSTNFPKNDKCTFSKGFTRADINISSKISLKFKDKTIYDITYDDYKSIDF
# Test: PBM E-score (8-mer binding enrichment) (E-score (-0.5 to 0.5)); higher = stronger / more preferred TF binding; most listed sequences are background and not binding sites
# Settings: protein concentration: 200 nM; construct: GST-full length
# Summary of the method: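 Yeast transcription factors, full-length or as DNA-binding domains, were expressed with a GST tag using PURExpress in vitro transcription/translation. At about 100-200 nM they were applied to universal all-10-mer Agilent arrays, double-stranded by primer extension on fresh or once-stripped slides. Fluorescent anti-GST detected bound protein, and masliner normalised the scans. E-scores for ungapped eight-base words, pooled with reverse complements, came from the Universal PBM Analysis Suite.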
row,Sequence,PBM E-score
1,CGAGGGGC,-0.398
2,CCCACTCG,-0.122
3,ACCTTTCC,0.0149
4,ATTAGTTC,0.22
5,TAGGCTGA,-0.137
6,AAAAGTTG,-0.0184
7,TAGGGCCA,-0.256
8,ACCGTCAG,-0.146
9,CAAACTCA,0.0357
10,CGCCAATC,-0.0275
11,CGCAGGAC,-0.147
12,CATATATG,0.0281
13,TACTTGGA,0.128
14,ATACAGCA,0.109
15,CAGCCGGG,-0.121
16,GTGACGGA,0.208
17,CGCGACTA,0.0153
18,GGCCCTGA,-0.111
19,TATGTTAA,0.192
20,CGCTCTAA,-0.0496
21,GACGAGAC,-0.184
22,AAAAGACT,0.00909
23,AATGTCAT,0.0297
24,TAGAGTCA,-0.251

row,Sequence,PBM E-score
1,GTTTTCCA,0.0497
2,ATGCTCCC,-0.0998
3,ACTAGCGG,-0.0915
4,GGTGAAGA,-0.0915
5,ATCGGACG,0.0416
6,CAAGGAAA,0.0463
7,CTAGCCAG,-0.221
8,AAGCACAA,0.131
9,CAGCATTA,-0.0162
10,AATCTCGC,0.0784
11,AACTTTTG,0.126
12,GGCTATAC,-0.079
13,CTTCGTAC,0.045
14,GAATCCGA,0.105
15,GATGTGGA,0.171
16,AGGTGAAC,-0.0497
17,ACCTAACT,0.135
18,CTACAAAC,0.0828
19,ATCATTCC,-0.0151
20,GACCCCCA,-0.334
21,CCTCAACG,-0.238
22,ACGTGATC,-0.11
23,ATGTTCGG,0.181
24,CAAACATA,0.0624

row,Sequence,PBM E-score
1,AGACCAAA,0.026
2,CTATACTA,0.21
3,AAGGAGAG,-0.224
4,GCAATTAA,0.24
5,AAGGACTC,-0.00078
6,AAACGTAG,-0.0839
7,AACAGTTG,-0.0513
8,ACCCGCCT,-0.184
9,ATTAGCGC,0.03
10,ATCCACTC,0.00375
11,TCGAGCCA,-0.266
12,CGGAAACG,0.0711
13,AGTGAGGG,-0.249
14,CTCCAGTC,-0.0811
15,ACCTTTTG,0.0149
16,ACGGCATA,-0.0441
17,GTACGCGA,-0.205
18,GCTATCAC,-0.175
19,TGGCCACA,-0.0965
20,CCTGGTTA,-0.0745
21,ATATCCGG,0.159
22,ACAAATTG,0.0792
23,TCTCAGCA,-0.256
24,TATTCGGA,0.352

row,Sequence,PBM E-score
1,TGGGCGAA,-0.101
2,CGACCGAC,0.0304
3,GAACCGGA,0.32
4,AGTAATCA,0.0342
5,ATCCGTTA,0.275
6,AGGATGCA,-0.108
7,GAACGCAC,-0.058
8,ACGTCCTA,-0.0698
9,CAAAGACA,0.00325
10,CCACTCGC,-0.258
11,CAGTCGGG,-0.00267
12,TACGCACA,-0.0951
13,CGCTGGGC,-0.0446
14,ACAAATAA,0.209
15,AGGTCCGC,0.286
16,CGATCGCA,-0.064
17,GGACCTGA,0.127
18,AAAGCTAA,0.105
19,ATGCAGGG,-0.26
20,AATAACTG,0.219
21,GCTCGAGC,-0.0513
22,ACAGGCTG,-0.184
